The campaign covered roughly 230,000 compounds. About 3,600 (1.6%) were called active. This list was built around the results that the source calls inconclusive (neither active nor inactive); the mix of calls is not that of the screen. Calls follow the shape of the dose curve; as a rule, active = well fitted inhibition curve with a large enough effect (not every such curve was filed as active); inconclusive = small, poorly fitted or top-dose-only effect, or another doubt; inactive = no such curve, though single readings can be large or run the other way. Potencies of inconclusive entries are doubtful fits and often do not repeat.
The molecules below were run against Lysine-specific demethylase 4E (Homo sapiens) (UniProt B2RXH2) (assay: qHTS Assay for Inhibitors of Human Jumonji Domain Containing 2E (JMJD2E)). Details: JMJD2E catalytic domain, FDH-coupled NADH fluorescence (FDH is formaldehyde dehydrogenase); series mostly up to 57.1 µM; activity change, negative = inhibition: at the top concentration.
Chain of UniProt B2RXH2 (B2RXH2 whole entry, looked up, the tested form may be a part): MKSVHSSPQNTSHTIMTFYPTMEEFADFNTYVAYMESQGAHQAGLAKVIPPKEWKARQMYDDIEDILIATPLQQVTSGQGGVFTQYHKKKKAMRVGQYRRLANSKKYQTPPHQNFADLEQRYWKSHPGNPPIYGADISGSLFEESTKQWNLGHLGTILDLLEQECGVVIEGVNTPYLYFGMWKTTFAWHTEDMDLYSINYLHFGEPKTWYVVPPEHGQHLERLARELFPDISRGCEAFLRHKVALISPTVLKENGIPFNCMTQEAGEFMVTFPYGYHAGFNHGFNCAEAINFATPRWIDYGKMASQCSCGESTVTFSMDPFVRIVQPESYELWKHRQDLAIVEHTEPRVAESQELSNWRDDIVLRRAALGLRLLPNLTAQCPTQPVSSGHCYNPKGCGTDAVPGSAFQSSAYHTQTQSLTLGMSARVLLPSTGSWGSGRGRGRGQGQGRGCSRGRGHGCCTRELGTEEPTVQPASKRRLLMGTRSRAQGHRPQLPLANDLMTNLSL
Also: nearly all actives have a fitted effect of over 50% in size.
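For activity change, negative = inhibition in this document: 0% = wells with enzyme and -100% = buffer wells without enzyme.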
Potency is read from the fitted curve at half-maximal effect; tags tell the direction and shape of the fitted curve.

Row | SMILES | Potency | activity change, negative = inhibition
1 | CCCCCC(=O)Nc1nc(C)c(-c2csc(Nc3ccc(Cl)cc3)n2)s1 | inconclusive: 0.178 µM [inhibitor, full curve, poor fit] | 
2 | CCN(CC)CCNC(=O)c1c(O)c2cc(OC)c(OC)cc2[nH]c1=O | inconclusive: 31.6 µM [inhibitor, partial curve] | 
3 | O=C(NNC(=O)C1CCN(c2ncccn2)CC1)c1ccccc1 | inconclusive: 28.2 µM [inhibitor, single point] | 
4 | COCCOC(=O)c1c(N)n(CCCN2CCOCC2)c2nc3ccccc3nc12 | inconclusive: 31.6 µM [inhibitor, partial curve] | 
5 | C/C(=C\C(=O)c1ccccc1)NCc1ccc(F)cc1 | inconclusive: 39.8 µM [inhibitor, single point] | 
6 | C(=N\Nc1nc(Nc2ccccc2)nc(N2CCOCC2)n1)/c1c[nH]c2ccccc12 |  | inactive: -0.788%
7 | CCC(CC)C(=O)N1N=C(c2ccc(NS(C)(=O)=O)cc2)CC1c1ccc(C)cc1 (stereo not drawn) | inconclusive: 28.2 µM [inhibitor, partial curve] | 
8 | O=C(CCSCc1cccc(Cl)c1)NC1CCCC1 |  | inactive: 0.329%
9 | COC(=O)c1ccc(C(=O)OC)c(NC(=O)C2CC2)c1 | inconclusive: 31.6 µM [inhibitor, partial curve] | 
10 | CC(=O)N(c1nc(CCl)cs1)c1ccc(C)cc1C | inconclusive: 25.1 µM [inhibitor, partial curve] | 
11 | CCc1ccc(OCCCC(=O)NCc2ccccc2)cc1 |  | inactive: -2.47%
12 | CC1CCN(c2oc(-c3ccccc3Cl)nc2C#N)CC1 | inconclusive: 31.6 µM [inhibitor, partial curve] | 
13 | CCCCNC(=O)CCC(=O)Nc1ccc2nc(N3CCOCC3)cc(C)c2c1 | inconclusive: 31.6 µM [inhibitor, partial curve] | 
14 | Cc1nc(-c2cccc(C(F)(F)F)c2)sc1C(=O)O |  | inactive: -1.62%
15 | O=c1c2[nH]c3ccc(F)cc3c2nc2n1CCS2 | inconclusive: 25.1 µM [inhibitor, partial curve] | 
16 | O=C(O)c1cccc(NC2=C(n3nnc4ccccc43)C(=O)c3ccccc3C2=O)c1 |  | inactive: -22.8%
17 | Cc1cccc(Sc2nc(-c3ccccc3)ccc2C#N)c1 | inconclusive: 35.5 µM [inhibitor, single point] | 
18 | FC(F)(F)COc1nc(N2CCCCC2)nc(N2CCNCC2)n1 | inconclusive: 39.8 µM [inhibitor, single point] | 
19 | O=C1c2ccccc2NC(c2ccco2)N1NS(=O)(=O)c1ccccc1 (stereo not drawn) | inconclusive: 17.8 µM [inhibitor, partial curve] | 
20 | O=[N+]([O-])c1ccccc1S(=O)(=O)Oc1ccccc1/C=N/n1cnnc1 |  | inactive: -0.929%
21 | CC1=CC(C)(C)Nc2cc(C)c(C)cc21 | active: 11.2 µM | 
22 | Cc1ccc(C2=NN(C(=O)c3cccs3)C(c3ccccc3O)C2)cc1 (stereo not drawn) | inconclusive: 20 µM [inhibitor, partial curve] | 
23 | COc1ccc(OC)c(Nc2ncnc3c2cnn3-c2cccc(C)c2)c1 | inconclusive: 35.5 µM [inhibitor, single point] | 
24 | CC(C)c1cc(NCCCN2CCOCC2)n2c(nc3ccccc32)c1C#N | inconclusive: 8.91 µM [inhibitor, full curve] | 
25 | COc1ccc(C(C(=O)Nc2ccc(C(C)C)cc2)N(C)C(=O)c2ccc(=O)[nH]c2)cc1 (stereo not drawn) |  | inactive: 5.92%

Row | SMILES | Potency | activity change, negative = inhibition
26 | COc1ccccc1NC(=O)CN1CCN(CC(=O)Nc2ccc(F)cc2)CC1 |  | inactive: 3.33%
27 | Cc1cc(N(CCO)CCO)ccc1C(c1ccc(N(CCO)CCO)cc1C)c1ccccc1Cl |  | inactive: -15.4%
28 | COc1cc(/C=C2\SC(=S)N(c3cccnc3)C2=O)ccc1O |  | inactive: 7.95%
29 | COc1ccccc1NC(=S)N/N=C1\CC(C)(C)Oc2ccc(O)cc21 | inconclusive: 28.2 µM [inhibitor, partial curve] | 
30 | CCS(=O)(=O)Nc1ccc(C2=NN(C(C)=O)C(c3cccs3)C2)cc1 (stereo not drawn) | inconclusive: 31.6 µM [inhibitor, partial curve] | 
31 | CSc1nc(NCC(C)C)c2c3c(sc2n1)CN(C)CC3 | inconclusive: 31.6 µM [inhibitor, partial curve] | 
32 | CCOc1ccc2[nH]c3c(N4CCN(C(=O)c5ccco5)CC4)ncnc3c2c1 | inconclusive: 31.6 µM [inhibitor, partial curve] | 
33 | O=C(NCC1CCCO1)c1c(O)c2c([nH]c1=O)CCCC2 (stereo not drawn) | inconclusive: 35.5 µM [inhibitor, single point] | 
34 | Cc1ccc2nc(N/N=C/c3ccccc3F)nc(-c3ccccc3)c2c1 | inconclusive: 28.2 µM [inhibitor, single point] | 
35 | O=c1c(-c2ccc(Cl)cc2)cnc2n1CCS2 |  | inactive: -3.42%
36 | CC(=O)N1N=C(c2ccccc2)CC1c1cn(Cc2ccccc2)c2ccccc12 (stereo not drawn) | inconclusive: 35.5 µM [inhibitor, single point] | 
37 | CCN1CC=C2C(C1)C(c1ccc(Cl)s1)C(C#N)=C(N)C2(C#N)C#N (stereo not drawn) | inconclusive: 22.4 µM [inhibitor, partial curve] | 
38 | S=C(Nc1ccccc1Cl)N(Cc1ccccc1)Cc1cccnc1 |  | inactive: 3.34%
39 | Cc1sc2nc(SCC(=O)NCc3cccs3)[nH]c(=O)c2c1C |  | inactive: -2.89%
40 | CCSc1ncccc1-c1nc2ccccc2[nH]1 | inconclusive: 39.8 µM [inhibitor, single point] | 
41 | COc1ccc2c(-c3ccccc3)cc(SCC(N)=O)nc2c1 | inconclusive: 20 µM [inhibitor, partial curve] | 
42 | COc1ccc(-c2cc(C(F)(F)F)nc(SCC(=O)N(C)Cc3cnn(C)c3C)n2)cc1OC | inconclusive: 31.6 µM [inhibitor, partial curve] | 
43 | CCCCC(=O)OC1CCC2C3CCc4cc(O)ccc4C3CC[C@]12C (stereo partly drawn) |  | inactive: -1.89%
44 | CCOc1ccc(NC2=C(OC)C(=O)c3ccccc3C2=O)cc1 | active: 14.1 µM | 
45 | Cc1ccc(S(=O)(=O)/N=C(\N)Nc2nc(C)c3cc(C)c(C)cc3n2)cc1 | inconclusive: 25.1 µM [inhibitor, single point] | 
46 | Cc1cccc(CCNS(=O)(=O)c2ccc3c(c2)n(C)c(=O)c(=O)n3C)c1 | inconclusive: 25.1 µM [inhibitor, partial curve] | 
47 | CCOC(=O)CN1NC2(CCCCC2)NC1=S | inconclusive: 39.8 µM [inhibitor, single point] | 
48 | O=C(Cc1ccc(Cl)cc1)Nc1ccc2oc(-c3ccncc3)nc2c1 | inconclusive: 28.2 µM [inhibitor, partial curve] | 
49 | COc1ccc(OC)c(C2=NOC(C(=O)Nc3cccnc3)C2)c1 (stereo not drawn) | inconclusive: 39.8 µM [inhibitor, single point] | 
50 | CN(C)C(=O)CCSc1nnc(-c2ccco2)o1 |  | inactive: -1.28%

Row | SMILES | Potency | activity change, negative = inhibition
51 | O=C(NCCCN1CCN(CCCNC(=O)c2cc([N+](=O)[O-])ccc2Cl)CC1)c1cc([N+](=O)[O-])ccc1Cl |  | inactive: -0.535%
52 | CCCNC(=O)COC(=O)c1cc(SC)ccc1Cl | inconclusive: 39.8 µM [inhibitor, single point] | 
53 | CC(=O)Nc1cccc(Nc2nc(-c3ccccc3)nc3ccccc23)c1 | inconclusive: 25.1 µM [inhibitor, single point] | 
54 | c1ccc(COn2c(-c3ccccc3)nc3c2CCc2nonc2-3)cc1 | inconclusive: 25.1 µM [inhibitor, single point] | 
55 | COc1ccc(-c2csc3nc(-c4ccccc4)oc(=O)c23)cc1OC |  | inactive: -7.12%
56 | COc1ccccc1/C=C(/C#N)C(=O)O | inconclusive: 39.8 µM [inhibitor, single point] | 
57 | O=C(NC(=S)Nc1cc(S(=O)(=O)N2CCOCC2)ccc1O)c1ccco1 |  | inactive: 4.98%
58 | O/N=C/c1ccc(-c2cc(Cl)ccc2Cl)o1 |  | inactive: 0.0505%
59 | COc1ccc(NS(=O)(=O)c2ccc(NC(=O)C3CCCO3)cc2)cc1 (stereo not drawn) |  | inactive: -6.26%
60 | Cc1c(C(=O)OCC[N+]2(C)CCCCC2)oc2ccccc12 | active: 25.1 µM | 
61 | CCC(C)NCCOCCOc1cc(C)c(Cl)c(C)c1 (stereo not drawn) | inconclusive: 22.4 µM [inhibitor, single point] | 
62 | CN(C)c1ccc(-c2nccc(NCCN3CCOCC3)n2)cc1 | inconclusive: 28.2 µM [inhibitor, partial curve] | 
63 | O=C(O)CC1(CC(=O)Nc2cc3ccccc3cn2)CCCCC1 | inconclusive: 28.2 µM [inhibitor, partial curve] | 
64 | CC(=NC1CC1)c1c(-c2ccccc2)[nH]n(-c2nc3ccccc3s2)c1=O |  | inactive: -3.26%
65 | COC(=O)c1ccc(C(=O)OC)c(NC(=S)N2CCN(c3ccccc3F)CC2)c1 | inconclusive: 10 µM [inhibitor, partial curve] | 
66 | CC(C)(C)OC(=O)NCCCC1=CC2=CC(=O)C(C)(OC(=O)c3cnc4ccccc4n3)C(=O)C2=CO1 (stereo not drawn) |  | inactive: -25.7%
67 | CCOc1ccc(NC(=O)c2cccnc2C(=O)O)cc1 | inconclusive: 39.8 µM [inhibitor, single point] | 
68 | COCCn1c(=NC(=O)CSCC(=O)NC2CCCCC2)sc2cc(OC)ccc21 | inconclusive: 35.5 µM [inhibitor, single point] | 
69 | CC(=NCc1cccc(Cl)c1)c1nc(-c2ccco2)oc1O |  | inactive: 7.59%
70 | NC(=O)c1ccccc1NS(=O)(=O)c1ccccc1 | inconclusive: 28.2 µM [inhibitor, single point] | 
71 | Cn1cc(C(=O)c2ccc(Cl)cc2Cl)cc1C(=O)N/N=C(\N)COc1ccccc1 | inconclusive: 28.2 µM [inhibitor, single point] | 
72 | O=c1[nH]c2cc3c(cc2cc1C(c1nnnn1Cc1ccccc1)N1CCN2CCCC2C1)OCCO3 (stereo not drawn) | inconclusive: 28.2 µM [inhibitor, partial curve] | 
73 | O=C(CSc1nnc(-c2ccccn2)o1)Nc1ccccc1 |  | inactive: -16.3%

Source: PubChem BioAssay AID2147 (National Center for Advancing Translational Sciences (NCATS), 2009)
